72 compounds from the supplement of paper PMC9588766 can be followed below.

Structures can show the parent of a compound that is named as a salt. ± gives the standard deviation of the averaged measurements. In all, about 2,000 compounds were measured (“cell viability relative to DMSO control (compound alone)”: median about 0.98, lowest 2% from about 0.23 on). The list shows a part of the results.

This assay deals with PDC-DUC18828. Description: cell viability relative to DMSO control (compound alone) (fraction); PDC-DUC18828 is a patient-derived cholangiocarcinoma cell line; higher = less growth inhibition. The conditions noted are these: 1 µM; 72 h. As for the experimental part: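 Selleck Bioactive library screen in the patient-derived FGFR2-G3BP2 fusion-positive ICC cell line PDC-DUC18828 (500 cells/well). Each compound was tested at 1 uM alone, in triplicate, for 72 h. Viability was read by CellTiter-Glo and normalised to plate DMSO controls.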
`C[C@]1(O)C[C@@H](c2nc(-c3ccc4ccc(-c5ccccc5)nc4c3)c3c(N)nccn32)C1` [OSI-906 (Linsitinib)] registered a cell viability of 0.868 ± 0.053. The figure for `CC(C)C[C@H](NC(=O)[C@@H](NC(=O)c1cccc(-c2ccccc2)n1)[C@@H](C)O)B(O)O` is 0.0155 ± 0.0027.

`CNC(=O)c1cc(Oc2ccc(NC(=O)Nc3cc(C(C)(C)C)nn3-c3ccc4ncccc4c3)c(F)c2)ccn1` [DCC-2036 (Rebastinib)] displayed a cell viability of 0.952 ± 0.034. Under `OC[C@H]1O[C@H](O[C@]2(CCl)O[C@H](CCl)[C@@H](O)[C@@H]2O)[C@H](O)[C@@H](O)[C@H]1Cl` [Sucralose] stands 1.01 ± 0.017; under `COc1ccc2c(c1)c(CC(=O)O)c(C)n2C(=O)c1ccc(Cl)cc1` [Indomethacin], 1.02 ± 0.029.

`CN1CCC(=C2c3ccccc3CCc3cccnc32)CC1` [Azatadine dimaleate] gave a cell viability of 0.791 ± 0.056. The figure for `Nc1nc2ccc(OC(F)(F)F)cc2s1` [Riluzole] is 1.1 ± 0.082. Compound `Cc1c(OCC(F)(F)F)ccnc1C[S@@+]([O-])c1nc2ccccc2[nH]1` [Dexlansoprazole] returned a cell viability of 1.03 ± 0.023. `CC[C@H]1OC(=O)[C@H](C)[C@@H](O[C@H]2C[C@@](C)(OC)[C@@H](O)[C@H](C)O2)[C@H](C)[C@@H](O[C@@H]2O[C@H](C)C[C@H](N(C)C)[C@H]2O)[C@](C)(O)C[C@@H](C)C(=O)[C@H](C)[C@H]2OC(=O)O[C@@]21C` [Erythromycin Cyclocarbonate] registered a cell viability of 1.01 ± 0.047. In turn, `NC(=O)c1cn(Cc2c(F)cccc2F)nn1` [Rufinamide] returned a cell viability of 0.865 ± 0.021. Under `Cc1cc(O)c2c(c1)C(=O)c1cccc(O)c1C2=O` [Chrysophanic Acid] stands 0.9325 ± 0.0033; under `CC(C(=O)O)c1ccc(-c2ccccc2)c(F)c1` (configuration not stated) [Flurbiprofen], 0.938 ± 0.04. The figure for `C[C@H]1O[C@@H](O[C@H]2[C@@H](O)C[C@H](O[C@H]3[C@@H](O)C[C@H](O[C@H]4CC[C@@]5(C)[C@H](CC[C@@H]6[C@@H]5C[C@@H](O)[C@]5(C)[C@@H](C7=CC(=O)OC7)CC[C@]65O)C4)O[C@@H]3C)O[C@@H]2C)C[C@H](O)[C@@H]1O` [Digoxin] is 0.133 ± 0.0037; for `CC(NC(=O)C(Cc1ccccc1)NC(=O)OCc1ccccc1)C(=O)CF` (configuration not stated) it is 0.93 ± 0.011; for `C=CCc1cccc(/C=N/NC(=O)CN2CCN(Cc3ccccc3)CC2)c1O` it is 0.965 ± 0.033. Under `CC(C(=O)O)c1ccc2c(c1)[nH]c1ccc(Cl)cc12` (configuration not stated) [Carprofen] stands 1.02 ± 0.053; under `O=C(Nc1cccc(C(F)(F)F)c1)Nc1cc(S(=O)(=O)NC2CC2)ccc1-c1ccsc1`, 0.9874 ± 0.0046; under `O=C1c2c(O)cccc2C([C@@H]2O[C@H](CO)[C@@H](O)[C@H](O)[C@H]2O)c2cc(CO)cc(O)c21` (some centres not stated) [Aloin], 0.991 ± 0.044. `Cc1ccccc1C(=O)Nc1ccc(C(=O)N2CCCC(O)c3cc(Cl)ccc32)c(C)c1` (configuration not stated) [Tolvaptan]: the cell viability was found to be 0.984 ± 0.038. Under `CN(C)C(=O)C(CCN1CCC(O)(c2ccc(Cl)cc2)CC1)(c1ccccc1)c1ccccc1` [Loperamide HCl] stands 0.853 ± 0.027. With `CCN(CC)CCNC(=O)c1c(C)[nH]c(/C=C2\C(=O)Nc3ccc(F)cc32)c1C` [Sunitinib], the cell viability was determined as 1.01 ± 0.036.

The compound `CCN(CC)CCNC(=O)c1c(C)[nH]c(/C=C2\C(=O)Nc3ccc(F)cc32)c1C` [Sunitinib Malate] came in with a cell viability of 1.03 ± 0.083. For `COc1ccc(/C=C/C(=O)Nc2ccccc2C(=O)O)cc1OC` [Tranilast], the cell viability came out at 1.03 ± 0.036. The figure for `CCOC(=O)C1=C(COCCN)NC(C)=C(C(=O)OC)C1c1ccccc1Cl` (configuration not stated) [Amlodipine] is 0.972 ± 0.066; for `Oc1ccc(/C=C/c2cc(O)cc(O)c2)cc1` [Resveratrol] it is 1.06 ± 0.034; for `Cc1ncc(CCCN(C)C)cc1Nc1ncc2c(n1)-c1ccc(C(F)(F)F)cc1NC(=S)C2` it is 0.259 ± 0.017.

Turning to `Cc1cc(/C=C/C#N)cc(C)c1Nc1ccnc(Nc2ccc(C#N)cc2)n1` [Rilpivirine], the cell viability came out at 0.98 ± 0.057. Under `CCOc1cc2ncc(C#N)c(Nc3ccc(F)c(Cl)c3)c2cc1NC(=O)/C=C/CN(C)C` [Pelitinib (EKB-569)] stands 0.793 ± 0.025; under `Cc1c(N(C)C)c(=O)n(-c2ccccc2)n1C` [Amidopyrine], 1.02 ± 0.04. Under `COc1ccccc1OCC(O)CO` (configuration not stated) [Guaifenesin] stands 1.02 ± 0.06; under `Nc1nc(CC(=O)Nc2ccc(CCNC[C@H](O)c3ccccc3)cc2)cs1` [Mirabegron], 0.992 ± 0.023. Under `CC[C@]1(O)C[C@H]2CN(CCc3c([nH]c4ccccc34)[C@@](C(=O)OC)(c3cc4c(cc3OC)N(C=O)[C@H]3[C@@](O)(C(=O)OC)[C@H](OC(C)=O)[C@]5(CC)C=CCN6CC[C@]43[C@@H]65)C2)C1` [Vincristine] stands 0.236 ± 0.014; under `CC(=O)[C@H]1CC[C@H]2[C@@H]3C=CC4=CC(=O)CC[C@@]4(C)[C@@H]3CC[C@]12C` [Dydrogesterone], 1.09 ± 0.025; under `O=S(=O)(NCCSSCCNS(=O)(=O)c1cc(Cl)ccc1Cl)c1cc(Cl)ccc1Cl`, 0.961 ± 0.03. In turn, `Cc1cc(=O)[nH]c(=S)[nH]1` [Methylthiouracil] gave a cell viability of 0.928 ± 0.052. Under `CN1[C@@H]2CC[C@H]1C[C@@H](OC(=O)c1c[nH]c3ccccc13)C2` [Tropisetron] stands 0.993 ± 0.064. The figure for `Cc1cccc(C)c1OCC(C)N` (configuration not stated) [Mexiletine HCl] is 0.945 ± 0.011; for `OCCOCCN1CCN(C2=Nc3ccccc3Sc3ccccc32)CC1` [Quetiapine Fumarate] it is 0.975 ± 0.031. With `Cc1nc(Nc2cnn(C3CCNCC3)c2)nc2c1N(C)C(=O)c1cc3ccccc3cc1N2C`, the cell viability was 1.01 ± 0.054. The figure for `CC1(C)S[C@@H]2[C@H](NC(=O)[C@H](N)c3ccc(O)cc3)C(=O)N2[C@H]1C(=O)O` [Amoxicillin] is 0.962 ± 0.058; for `CC1(C)S[C@@H]2[C@H](NC(=O)[C@H](N)c3ccc(O)cc3)C(=O)N2[C@H]1C(=O)O` [Amoxicillin Sodium] it is 1 ± 0.029; for `Cc1cc(C(=O)NOCCO)c(Nc2ccc(I)cc2F)n(C)c1=O` it is 0.559 ± 0.036. Under `COc1cccc2c1C(=O)c1c(O)c3c(c(O)c1C2=O)C[C@@](O)(C(=O)CO)C[C@@H]3O[C@H]1C[C@H](N)[C@H](O)[C@H](C)O1` [Doxorubicin (Adriamycin)] stands 0.136 ± 0.015. The figure for `O=C([C@@H](Cc1cccc(C(F)(F)F)c1)NS(=O)(=O)c1cc(F)c2c(c1)CCNC2)N1CCCC1` is 1.01 ± 0.05; for `Nc1nc(Cl)nc2c1ncn2[C@H]1C[C@H](O)[C@@H](CO)O1` [Cladribine] it is 0.382 ± 0.01. In turn, `O=C(C=Cc1ccccc1)NC(NC(=S)Nc1ccc(Cl)cc1)C(Cl)(Cl)Cl` (configuration not stated) registered a cell viability of 0.969 ± 0.023. As for `Fc1ccc(C(c2ccc(F)cc2)N2CCN(C/C=C/c3ccccc3)CC2)cc1` [Flunarizine 2HCl], the cell viability turned out to be 1.07 ± 0.044.

In the case of `Oc1ccc([C@H]2COc3cc(O)ccc3C2)cc1` [Equol], the cell viability is 0.934 ± 0.0094. Regarding `O=c1cc(-c2cccc3c2Sc2ccccc2S3)oc(N2CCOCC2)c1`, the cell viability was found to be 1.05 ± 0.068. Under `Cc1ccc(Nc2c(F)cccc2Cl)c(CC(=O)O)c1` [Lumiracoxib] stands 0.974 ± 0.022; under `CCCCC(=O)O[C@H]1CC[C@H]2[C@@H]3CCc4cc(O)ccc4[C@H]3CC[C@]12C` [Estradiol valerate], 0.965 ± 0.037; under `Cc1nc2ccc(-n3ncc(C(=O)c4cc5ccccc5[nH]4)c3N)cc2[nH]1`, 0.84 ± 0.02. Under `N#Cc1c(O)c2c(-c3ccc(-c4ccccc4O)cc3)csc2[nH]c1=O` stands 0.977 ± 0.05; under `Cc1[nH]c2ccccc2c1CCNC(=O)c1cccs1`, 0.917 ± 0.053. Under `N=C(N)c1ccc(OCCCCCOc2ccc(C(=N)N)cc2)cc1` [Pentamidine] stands 1.04 ± 0.021; under `CO/N=C(\C(=O)N[C@@H]1C(=O)N2C(C(=O)OCOC(=O)C(C)(C)C)=C(/C=C\c3scnc3C)CS[C@H]12)c1csc(N)n1` [Cefditoren Pivoxil], 1.01 ± 0.032. Regarding `CCCc1cc(=O)[nH]c(=S)[nH]1` [Propylthiouracil], the cell viability was found to be 0.924 ± 0.042. Under `COc1ccc(CCN(C)CCCC(C#N)(c2ccc(OC)c(OC)c2)C(C)C)cc1OC` (configuration not stated) [Verapamil HCl] stands 1.01 ± 0.053. Under `Cc1onc(-c2ccccc2)c1-c1ccc(S(N)(=O)=O)cc1` [Valdecoxib] stands 1.042 ± 0.0045; under `O=C(Nc1ccccc1)c1cc([N+](=O)[O-])ccc1Cl`, 0.883 ± 0.081; under `C=C1C(=O)O[C@@H]2/C=C(\C)CC/C=C(\C)CC[C@@H]12` [Costunolide], 0.953 ± 0.079. On to `C[C@]12CCC(=O)C=C1CC[C@@H]1[C@@H]2[C@@H](O)C[C@@]2(C)[C@H]1CC[C@]2(O)C(=O)CO` [Hydrocortisone], for which the cell viability worked out at 0.93 ± 0.053.

`C=CC(=O)Nc1cccc(C)c1Nc1ncc2cc(-c3c(Cl)c(OC)cc(OC)c3Cl)ccc2n1`: the cell viability was 0.795 ± 0.021. Under `O=C(CCc1ccc(O)cc1)c1c(O)cc(O)cc1O[C@@H]1O[C@H](CO)[C@@H](O)[C@H](O)[C@H]1O` [Phlorizin] stands 1.01 ± 0.094; under `COc1ccccc1C(=O)Nc1cc2c(cc1N1CCCC1)n(C)c(=O)n2C`, 1.01 ± 0.036; under `C=C[C@]1(C)C[C@@H](OC(=O)CS[C@@H]2C[C@H]3CC[C@@H](C2)N3C)[C@]2(C)[C@H](C)CC[C@]3(CCC(=O)[C@H]32)[C@@H](C)[C@@H]1O` [Retapamulin], 1.02 ± 0.047. Under `Oc1ncnc2[nH]ncc12` [Allopurinol] stands 0.993 ± 0.062; under `CN(N=O)C(=O)NC1C(O)OC(CO)C(O)C1O` (configuration not stated) [Streptozotocin (STZ)], 0.97 ± 0.06. With `C[N+]1(C)[C@@H]2CC[C@H]1C[C@@H](OC(=O)C(O)c1ccccc1)C2` (some centres not stated) [Homatropine Methylbromide], the cell viability came to 0.971 ± 0.036. Under `COC(=O)C1=C(C)NC(C)=C(C(=O)OCCN2CCN(C(c3ccccc3)c3ccccc3)CC2)C1c1cccc([N+](=O)[O-])c1` (configuration not stated) [Manidipine] stands 0.976 ± 0.031; under `COC(=O)C1=C(C)NC(C)=C(C(=O)OCCN2CCN(C(c3ccccc3)c3ccccc3)CC2)C1c1cccc([N+](=O)[O-])c1` (configuration not stated) [Manidipine 2HCl], 0.986 ± 0.038; under `CC(C)N(C[C@H]1O[C@@H](n2cnc3c(N)ncnc32)[C@H](O)[C@@H]1O)[C@H]1C[C@@H](CCc2nc3cc(C(C)(C)C)ccc3[nH]2)C1`, 0.94 ± 0.035.
